Experimental data reported in PMC11013433, “New Charged Cholinesterase Inhibitors: Design, Synthesis, and Characterization” (Molecules, 2024).

Experiments:
[1] = target: BChE (butyrylcholinesterase) (Equus caballus, UniProt P81908); experiment: biochemical
[2] = target: AChE (acetylcholinesterase) (Electrophorus electricus, UniProt O42275); experiment: biochemical

UniProt P81908, sequence (P81908 whole entry): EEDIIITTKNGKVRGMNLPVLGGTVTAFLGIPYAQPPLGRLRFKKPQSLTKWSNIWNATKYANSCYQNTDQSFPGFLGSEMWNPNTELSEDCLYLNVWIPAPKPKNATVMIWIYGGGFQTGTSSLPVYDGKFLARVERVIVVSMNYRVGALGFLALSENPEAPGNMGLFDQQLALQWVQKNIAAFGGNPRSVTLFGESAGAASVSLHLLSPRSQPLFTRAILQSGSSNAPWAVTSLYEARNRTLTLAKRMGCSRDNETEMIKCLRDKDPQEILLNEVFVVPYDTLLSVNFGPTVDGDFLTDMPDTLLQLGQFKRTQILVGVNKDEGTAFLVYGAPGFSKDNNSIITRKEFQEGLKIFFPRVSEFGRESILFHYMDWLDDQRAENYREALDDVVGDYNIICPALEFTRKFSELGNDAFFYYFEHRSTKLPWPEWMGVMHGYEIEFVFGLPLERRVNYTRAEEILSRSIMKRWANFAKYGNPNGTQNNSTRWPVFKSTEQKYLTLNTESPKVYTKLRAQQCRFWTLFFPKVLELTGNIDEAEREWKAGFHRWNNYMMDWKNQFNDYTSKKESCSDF

Row | Structure (SMILES) | IC50 [1] [µM] | IC50 [2] [µM]
1 | c1coc(Cn2nnc3ccc4ccsc4c32)c1 [compound 23, 1-(furan-2-ylmethyl)-1H-thieno[2′,3′:3,4]benzo[1,2-d][1,2,3]triazole] | 70 | 
2 | Fc1cccc(Cn2nnc3ccc4sccc4c32)c1 [compound 24] | 31 | 113
3 | COc1cccc(Cn2nnc3ccc4sccc4c32)c1 [compound 25] | 29.3 | 
4 | Clc1cccc(Cn2nnc3ccc4sccc4c32)c1 [compound 26] | 20.6 | 
5 | CN(C)c1ccc(Cn2nnc3ccc4ccsc4c32)cc1 [compound 27, 4-((1H-thieno[2′,3′:3,4]benzo[1,2-d][1,2,3]triazol-1-yl)methyl)-N,N-dimethylaniline] | 31.1 | 
6 | C=CCCn1nnc2ccc3ccsc3c21 [compound 28, 1-(but-3-en-1-yl)-1H-thieno[2′,3′:3,4]benzo[1,2-d][1,2,3]triazole] | 79.4 | 
7 | Cc1cc2c(ccc3nnn(Cc4ccc(N(C)C)cc4)c32)s1 [compound 29] | 92.2 | 
8 | COc1ccc2ccc3nnn(Cc4ccc(N(C)C)cc4)c3c2c1 [compound 30, 4-((8-methoxy-1H-naphtho[1,2-d][1,2,3]triazol-1-yl)methyl)-N,N-dimethylaniline] |  | 171
9 | C=CCn1nnc2ccc3ccc(Cl)cc3c21 [compound 31, 1-allyl-8-chloro-1H-naphtho[1,2-d][1,2,3]triazole] | 232 | 
10 | C=CCCn1nnc2ccc3ccc(Cl)cc3c21 [compound 32, 1-(but-3-en-1-yl)-8-chloro-1H-naphtho[1,2-d][1,2,3]triazole] | 71 | 195
11 | COc1ccc(Cn2nnc3ccc4ccc(Cl)cc4c32)cc1 [compound 33, 8-chloro-1-(4-methoxybenzyl)-1H-naphtho[1,2-d][1,2,3]triazole] | 195 | 
12 | COc1ccc(CCn2n[n+](C)c3ccc4sccc4c32)cc1 [compound 44, 1-(4-methoxyphenethyl)-3-methyl-1H-thieno[3′,2′:3,4]benzo[1,2-d][1,2,3]triazol-3-ium iodide] | 0.3 | 1.8
13 | CCOC(=O)CCn1n[n+](C)c2ccc3sccc3c21 [compound 45, 1-(3-ethoxy-3-oxopropyl)-3-methyl-1H-thieno[3′,2′:3,4]benzo[1,2-d][1,2,3]triazol-3-ium iodide] | 9.2 | 4.3
14 | C[n+]1nn(Cc2ccc(C(F)(F)F)cc2)c2c3ccsc3ccc21 [compound 46, 3-methyl-1-(4-(trifluoromethyl)benzyl)-1H-thieno[3′,2′:3,4]benzo[1,2-d][1,2,3]triazol-3-ium iodide] | 1.8 | 6.9
15 | C[n+]1nn(CCN2CCOCC2)c2c3ccsc3ccc21 [compound 47, 3-methyl-1-(2-morpholinoethyl)-1H-thieno[3′,2′:3,4]benzo[1,2-d][1,2,3]triazol-3-ium iodide] | 9.8 | 15.3
16 | C[n+]1nn(CCCCO)c2c3ccsc3ccc21 [compound 48, 1-(4-hydroxybutyl)-3-methyl-1H-thieno[3′,2′:3,4]benzo[1,2-d][1,2,3]triazol-3-ium iodide] | 37.2 | 168
17 | C[n+]1nn(Cc2ccc(F)cc2)c2c3ccsc3ccc21 [compound 49, 1-(4-fluorobenzyl)-3-methyl-1H-thieno[3′,2′:3,4]benzo[1,2-d][1,2,3]triazol-3-ium iodide] | 9.4 | 6.7
18 | C[n+]1nn(Cc2ccc(C(F)(F)F)cc2)c2c1CCc1sccc1-2 [compound 50, 3-methyl-1-(4-(trifluoromethyl)benzyl)-4,5-dihydro-1H-thieno[3′,2′:3,4]benzo[1,2-d][1,2,3]triazol-3-ium iodide] | 29.7 | 29.3
19 | C[n+]1nn(CCN2CCOCC2)c2c1CCc1sccc1-2 [compound 51, 3-methyl-1-(2-morpholinoethyl)-4,5-dihydro-1H-thieno[3′,2′:3,4]benzo[1,2-d][1,2,3]triazol-3-ium iodide] | 17.5 | 20.3
